Laboratory results as given in ChEMBL document CHEMBL1201862, “PubChem BioAssay data set” (2004).
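All cell lines were grown in 96-well plates and treated with compound for 48 hours. Here, GI50 denotes the concentration required for 50% inhibition of growth.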 The source made the active and inactive calls. No stated cut-off is given here; in the data, active = GI50 up to about 1.1 µM and inactive = higher.

Test system: NCI-H322M
Assay: NCI anticancer screen, dose series, 48 h

| Structure (SMILES) | GI50 |
| --- | --- |
| CCOC(=O)NN1C(=O)C(=P(c2ccccc2)(c2ccccc2)c2ccccc2)C(C(=O)OC)=C1C | inactive: > 100 µM |
| CN(C)CC(/C(Cc1ccccc1)=N\NC(=S)NN)c1ccccc1 (configuration not stated) | inactive: > 100 µM |
| CN(C)c1ccc(/C=c2\c3ccccc3n3c2cc(-c2ccccc2)[n+]3C)cc1 | active: 0.473 µM |
| NCCCOCC(=O)O | inactive: > 100 µM |
| Cc1ncc(CO)c(/C=N/CCCCCC/N=C/c2c(CO)cnc(C)c2O)c1O | inactive: > 56.9 µM |
| Oc1cc(F)cc2cccnc12 | inactive: 3.91 µM |
| CCOC(=O)[C@H]1Nc2c(cccc2[N+](=O)[O-])[C@H]2OCC[C@@H]12 | inactive: > 100 µM |
| O=C(Cc1ccccc1)NNc1nc(NNC(=O)c2ccncc2)nc(Nc2cccc(Cl)c2)n1 | inactive: > 10 µM |
| S=C(N/N=C/c1ccccn1)Nc1ccc(Cl)cc1 | active: 0.239 µM |
| c1ccc(Cn2c(-c3ccc(-c4ccccc4)cc3)cc3ccccc32)cc1 | inactive: > 100 µM |
| O=C1/C(=C/c2ccc(O)cc2)Oc2ccccc21 | inactive: > 100 µM |
| O=C1C=CC(=O)c2c1ccc1c3ccccc3n(-c3ccccc3[N+](=O)[O-])c21 | inactive: 16.9 µM |
| O=S(=O)(Nc1ccccc1S(=O)(=O)c1ccccc1)c1ccccc1 | inactive: > 100 µM |
| CC1(C)C2CCC13CS(=O)(=O)N1O[C@]13C(=O)O2 (some centres not stated) | inactive: > 100 µM |
| CCOP(=O)(OCC)C(C)(C)N(C)/C(F)=N/C(F)(F)F | inactive: > 100 µM |
| CCC12CCCC(=O)N1C(CO)C(c1ccccc1)O2 (configuration not stated) | inactive: > 100 µM |
| CC1=Cc2ccc(C)cc2C(=O)C1=O | inactive: 20.1 µM |
| CCCCCCC1CC(=O)C1(Cl)Cl (configuration not stated) | inactive: 58.7 µM |
| C[C@]12CCC(=O)C=C1CC[C@@H]1[C@@H]2CC[C@]2(C)C(=O)NC(=O)C[C@@H]12 | inactive: > 100 µM |
| Cn1c(=O)c2nc(CS(=O)(=O)Cc3nc4c(=O)n(C)c(=O)n(C)c4[nH]3)[nH]c2n(C)c1=O | inactive: > 100 µM |
| O=c1cc2ccccc2nn1Cc1cccc(Cl)c1 | inactive: > 100 µM |
| Cc1ccc(/C=C2\CN(C)CC3C2=NN(c2ccccc2)C3c2ccc(C)cc2)cc1 (configuration not stated) | inactive: > 100 µM |
| COC(=O)c1c/c(=N\NC(=O)CC(=O)Nc2ccc(C)cc2)c2ccccc2o1 | inactive: > 100 µM |
| CC12CC[C@H](O)C(C)(C)[C@H]1CC[C@](C)(O)C2COc1ccc2ccc(=O)oc2c1 (some centres not stated) | inactive: > 100 µM |

| Structure (SMILES) | GI50 |
| --- | --- |
| CCOC(=O)C(NC(=O)Nc1ccccc1)(Nc1cccc(Cl)c1)C(F)(F)F (configuration not stated) | inactive: > 100 µM |
| O=C(CSCC(=O)N/N=C\c1cc(Cl)cc(Cl)c1O)N/N=C\c1cc(Cl)cc(Cl)c1O | inactive: 1.56 µM |
| CCOC(=O)Nn1cnnc1C | inactive: > 100 µM |
| Cc1ccccc1/N=N/c1cc(C)c(/N=N/c2c(O)ccc3ccccc23)cc1C | inactive: > 100 µM |
| O=C(O)CCNC(=O)c1cc(N(CCBr)CCBr)c([N+](=O)[O-])cc1[N+](=O)[O-] | inactive: > 100 µM |
| COC(=O)C1CCC(=O)N1C(=O)Cc1ccc(OC)cc1 (configuration not stated) | inactive: > 100 µM |
| CCC(C#N)N(Cc1ccc(CN(C(=O)c2ccccc2)C(C#N)CC)cc1)C(=O)c1ccccc1 (configuration not stated) | inactive: 40.1 µM |
| CCOC(=O)N/N=C(/N)c1cccc(Br)c1 | inactive: > 100 µM |
| Nc1ncc2c(n1)-c1ccccc1OC2N1CCCC1 (configuration not stated) | inactive: > 100 µM |
| C[C@@H]1C[C@@]2(O[C@@H]2C)C(=O)O[C@@H]2CCN3CC=C(COC(=O)[C@]1(C)O)[C@H]23 | inactive: > 100 µM |
| N=C(N)N/N=C/c1c(-c2ccc(Cl)cc2)nc2sccn12 | inactive: 3.67 µM |
| CCNC(=O)C#CC(=O)NCC | inactive: > 10 µM |
| COc1ccc(OC)c2sc(N3C(=O)/C(=C/c4cccc([N+](=O)[O-])c4)N=C3c3ccccc3)nc12 | inactive: > 100 µM |
| CN(C)CCn1c(CO)nc2c1c(=O)n(C)c(=O)n2C | inactive: > 100 µM |
| CC(=O)OCC(OC(C)=O)C(OC(C)=O)C(OC(C)=O)C(=O)CNn1c(-c2ccccc2Cl)nc2ccc(Br)cc2c1=O (configuration not stated) | inactive: > 100 µM |
| C=C1c2nc3ccccc3n2C=C(c2ccc(Cl)cc2)N1c1ccc(OCCN2CCOCC2)cc1 | inactive: 61.8 µM |
| O=c1c2ccccc2oc2nccnc12 | inactive: > 100 µM |
| Nc1nc2c3c(ncn3CC(O)CO2)n1 (configuration not stated) | inactive: > 100 µM |
| COc1ccc(/C=C/c2ccnc3ccccc23)cc1 | inactive: 14.2 µM |
| CCOC(=O)C1=C(C)Nc2ccccc2S1 | inactive: > 100 µM |
| CCOC(=O)C(Br)(C(N)=O)C1(O)OC(c2ccccc2)=C(Br)C1=O (configuration not stated) | inactive: > 100 µM |
| CN(C)c1ccc(/C=C2\C[C@H]3[C@@H]4CC=C5C[C@@H](N6CCCC6)CC[C@]5(C)[C@H]4CC[C@]3(C)[C@H]2O)cc1 | inactive: 1.87 µM |
| O=[N+]([O-])c1ccc(N2N=C(c3c(O)ccc4ccccc34)CC2c2ccc(Cl)cc2)c([N+](=O)[O-])c1 (configuration not stated) | inactive: 22.2 µM |
